US20250243520A1, “PRODUCTION METHOD FOR L-CYCLIC AMINO ACIDS” (UBE CORPORATION, priority 2019, published 2025)

Substrate: NC(=O)C1=CN([C@@H]2O[C@H](COP(=O)(O)OP(=O)(O)OC[C@H]3O[C@@H](n4cnc5c(N)ncnc54)[C@H](OP(=O)(O)O)[C@@H]3O)[C@@H](O)[C@H]2O)C=CC1
Test: purified protein, by the assay type
Type: biochemical, Arabidopsis thaliana
[1] = other: Hanes-Woolf plot, NADPH 10-500 μM, Tris-HCl pH 7.2

B1: Arabidopsis thaliana imino acid (imine) reductase AtP2CR, GST-fused, SEQ ID NO: 8 (AtP2CR: SEQ ID NO: 2) (Arabidopsis thaliana) (protein)
chain: [sequence of about 200 residues not given]SDLVPRGSPEFMAALPVFIPAESFPSILSHETLINHFRTNLPKHSSTITSPVRQNYTVSSPSSLLLMPSWSSSSSLPYMGVKLVTYFPHNSSQNLPGIHGSYTLFSSTTGQTLATMDGTVLTLYRTSSVSGLGSKILARDDSQVLIMVGSGALAPHLIKSHLAARPSLRRVIIWNRTPQRAQELAETLSKDPQHKEISFDSHDSLDQIIPLGDIISCATNSTVPLVKGEFLKPGTHLDLAGSFSHEMKECDDNAIQRGSVFVDNDTAMIEAGELAGAFERGVIKREDICGNLVELIKGDKEGRKSSTDITVFKSVGSGTVDLLTAQLVHETYLSRC
notes: pGEX-4T-1), expressed in E. coli, GST-purified
Km [1]: 33.42 µM | Vmax [1]: 208.73 nmol/min/mg | Km (other: Table 5, values determined by ANEMONA, GST-fused protein, pH 7.2): 34.3 µM
